# Measured values: PubChem BioAssay AID624296 (National Center for Advancing Translational Sciences (NCATS), 2012)
# About 9,900 (2.8%) of roughly 350,000 compounds were called active. Inconclusive results, whose numbers are uncertain, are shown with a selection of clear calls. Calls follow the shape of the dose curve; as a rule, active = well fitted activation curve with a large enough effect; inconclusive = small, poorly fitted or top-dose-only effect; inactive = no such curve, though single readings can be large or run the other way. Potencies of inconclusive entries are left out as doubtful fits.
# Assay: A quantitative high throughput screen for small molecules that induce DNA re-replication in MCF 10a normal breast cells. Also: nearly all actives have a fitted effect of over 50% in size. As to activity, positive = re-replication: % of control where 0% means no effect.
# Settings: MCF 10A DNA re-replication, Hoechst nuclear intensity, 48 h; activity, positive = re-replication: at 46.1 µM (top of the series)
# Potency is read from the fitted curve at half-maximal effect; tags tell the direction and shape of the fitted curve.
SMILES,Potency,"activity, positive = re-replication"
COc1ccc2cc(/C=N/NC(=O)c3ccc(CN(c4cccc(Cl)c4Cl)S(C)(=O)=O)cc3)c(Cl)nc2c1,"inconclusive [activator, full curve, poor fit]",
Cc1cccc(S(=O)(=O)c2c(N)n(Cc3ccco3)c3nc4ccccc4nc23)c1,"inconclusive [activator, single point]",
CC(C)(C)c1ccc(N/N=C(\C#N)S(=O)(=O)C(C)(C)C)cc1,,inactive: 5.91%
Cc1cc(SCC(=O)N/N=C/c2ccc(O)c(O)c2)c(C)cc1Br,"inconclusive [activator, partial curve]",
CCN(CC(=O)NCC(=O)Nc1ccc(Br)cc1C)Cc1ccccc1,"inconclusive [activator, partial curve, poor fit]",
COc1ccccc1NC(=O)COc1ccccc1,"inconclusive [activator, partial curve, poor fit]",
Cc1ccc(N(CC(N)=O)C2SC(=O)N(Cc3ccccc3)C2=O)cc1 (stereo not drawn),active: 20.6 µM,
CC[C@]12c3[nH]c4ccccc4c3CCN1C(=O)C(CC(=O)NCCCn1ccnc1)C[C@@H]2C(=O)N1CCN(C(=O)C2CC2)CC1 (stereo partly drawn),,inactive: 5.41%
CCC(Oc1ccccc1)C(=O)Nc1ccc(S(=O)(=O)Nc2cc(C)on2)cc1 (stereo not drawn),"inconclusive [activator, single point]",
O=C(c1cccc(C(F)(F)F)c1)N1CCC(O)(CS(=O)(=O)Cc2ccccc2Cl)CC1,,inactive: 5.49%
C=C(C)C1CCC(C)=C1COC(=O)Nc1ccccc1 (stereo not drawn),"inconclusive [activator, partial curve, poor fit]",
O=C(/C=C/c1ccc(Cl)cc1Cl)c1cccnc1,"inconclusive [activator, single point]",
CC(C)(C)NNC(=S)Nc1cccc(F)c1,"inconclusive [activator, single point]",
CC1=CC(C)(C)N(C(=O)CSc2nnc(N)s2)c2ccccc21,"inconclusive [activator, full curve]",
Cc1ccc(-n2c(-c3ccc(Cl)cc3Cl)n[nH]c2=S)cc1,"inconclusive [activator, partial curve, poor fit]",
O=c1cc(Cc2nnc(SCc3ccccc3)n2-c2ccc(Cl)cc2)[nH]c(=O)[nH]1,,inactive: -0.591%
COc1ccc(-c2nc(C#N)c(N3CCCCCC3)o2)cc1OC,"inconclusive [activator, single point]",
Cc1sc(NC(=O)CSc2nnc(CCNC(=O)c3cccs3)n2C)nc1-c1ccccc1,"inconclusive [activator, single point]",
